# Test results as given in PMC12136788.
# This is one part of the list.
# T1: UNK ZnF1-6 (called full-length) (human, UniProt Q9C0B0 30-357)
# T1 sequence: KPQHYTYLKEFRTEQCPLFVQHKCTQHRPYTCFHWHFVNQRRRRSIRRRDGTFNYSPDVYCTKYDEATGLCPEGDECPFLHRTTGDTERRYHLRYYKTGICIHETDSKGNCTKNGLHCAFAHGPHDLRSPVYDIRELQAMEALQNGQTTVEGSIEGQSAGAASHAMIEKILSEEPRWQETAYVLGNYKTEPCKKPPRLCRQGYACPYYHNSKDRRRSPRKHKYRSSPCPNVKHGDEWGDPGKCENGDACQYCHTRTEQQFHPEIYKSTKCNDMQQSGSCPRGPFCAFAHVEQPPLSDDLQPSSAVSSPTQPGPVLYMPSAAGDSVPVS
# B1: chr5:157162449:157163658:-|CDS|ENSG00000170613|control|control|control (ssRNA)
# RNA: GGGAGUUCUACAGUCCGACGAUCGGUCACAUCACAUGACAGAGAGGUAGAUAUCGUGGCUAAGAUGGUGGAGAAGCAAAACAUAGAGGCCAAAGUGGAGAAAGCCCAGGGUGGCCAGGAGCUGGAGAUGAUCAGUGGCACUAUCAACAGAGGAUUGAGCAUCA
# B2: chr22:27980698:27980799:-|3pUTR|ENSG00000100154|unk|FALSE|unique (ssRNA)
# RNA: GGGAGUUCUACAGUCCGACGAUCUAACCAUUAAUUUAUUUUAUAAAGAAAGGAAAUGCUGAAAGUCGUAUUAGUACUGAGUUUAGUUGGAGAAUUUAGAUAAGUAAGUAUCUUUUAGGUAAUUCUAAAAUUAAAAUCCUACCCCAACAGAGGAUUGAGCAUCA
# B3: chr12:95077336:95077437:-|3pUTR|ENSG00000180263|msi1|total|mutant (ssRNA)
# RNA: GGGAGUUCUACAGUCCGACGAUCUCCUCAUUGACCCAUCCGCAUCUCUGUUUAUCCAAGACUUCUCUGUGACCGCUGACCCUCCGUCUUUCUCUCCCCUAUUCCUCCAGACCCGAUCCUGUCUCCUUCCUGCAGCCCCGACACCAACAGAGGAUUGAGCAUCA
# B4: chr1:9850293:9850394:-|3pUTR|ENSG00000178585|unk|FALSE|unique (ssRNA)
# RNA: GGGAGUUCUACAGUCCGACGAUCCGGUAUCUGGCUUCCCUGGAAGCUCUCCGAGCUCUGGUGCUUUAGUUAGGUCAUUUUUUUAGAAAUGUGAAGAGGUCUGAUUGGCUGCUUAAACUGGAAAGGAUCUGUGAUUGGCUGGUUCAACAGAGGAUUGAGCAUCA
# B5: chr5:38883864:38883977:+|CDS|ENSG00000145623|unk|FALSE|unique (ssRNA)
# RNA: GGGAGUUCUACAGUCCGACGAUCGUUUUCCCUAAAGAUAAGCUGGUGGAAGAAGGCACCAAUGUUACCAUUUGUUACGUUUCUAGGAACAUUCAAAAUAAUGUAUCCUGUUAUUUGGAAGGGAAACAGAUUCAUGGAGAACAACAACAGAGGAUUGAGCAUCA
# B6: ENSG00000124766:be:win_3501|3pUTR|ENSG00000124766|bound_else_gene|NA|bound_elsewhere_windowed (ssRNA)
# RNA: GGGAGUUCUACAGUCCGACGAUCAACUUGUAAACCACAUCUUUUUUGCACUUUUUUUAUAAGCAAAAACGUGCCGUUUAAACCACUGGAUCUAUCUAAAUGCCGAUUUGAGUUCGCGACACUAUGUACUGCGUUUUUCAUUCUCAACAGAGGAUUGAGCAUCA
# B7: ENSG00000136451:be:win_3351|3pUTR|ENSG00000136451|bound_else_gene|NA|bound_elsewhere_windowed (ssRNA)
# RNA: GGGAGUUCUACAGUCCGACGAUCGAAGGCAACACAUUCCUACACUUUUAAUGUAUAUGUUUGUUAUAAUGUCCAUGUAAACAUGCCCUAUGUUUGUGCCUUUUAAUUAGUUUGUCUCAAUAAACAAAAUGUAGAGAAAAAUAUCAACAGAGGAUUGAGCAUCA
# B8: chr4:140442261:140443444:-|three_prime_utr|ENSG00000205301|control|control|control (ssRNA)
# RNA: GGGAGUUCUACAGUCCGACGAUCCUCUGUAAUACCUGGAACCUCAGAUAACCUUGAUAUCUAAUGGCAUGUUUCAGAAAUUGUAGUAAUGAAAAUACAUAAUUAUCUAGCAGAUAAGUAAACAAUGCAUAAACUAGUAGACUUCAACAGAGGAUUGAGCAUCA
# B9: chr17:21001410:21001511:-|3pUTR|ENSG00000124422|msi1_unk|FALSE|overlapping (ssRNA)
# RNA: GGGAGUUCUACAGUCCGACGAUCUAGUACAACUUUUAGACACAGAAAUCUGAAUGACAUAUAUUGUUCUGUGUCAAGAAACUUAGAUUUUUUUUUUAACUAUUUAAAAACGUGAAACCUAUUCUUAGCUCACAGGCCAUGGAGCAACAGAGGAUUGAGCAUCA
# B10: chr5:37007335:37007444:+|CDS|ENSG00000164190|unk|FALSE|unique (ssRNA)
# RNA: GGGAGUUCUACAGUCCGACGAUCAGGCUUAUUAAGUUCAAAAGCAAAACGGGCUAAAUGUUCUACCCAUAAGCAGAGAGUAAUAGUAAUGCUUUAUAACAAAGUUUGUGACAUUGUUAGCAGCUUAUCAGAAUUGCUAGAGAUCAACAGAGGAUUGAGCAUCA
# B11: ENSG00000198589:be:win_9401|3pUTR|ENSG00000198589|bound_else_gene|NA|bound_elsewhere_windowed (ssRNA)
# RNA: GGGAGUUCUACAGUCCGACGAUCUAGAGGCUACCGGGUGCUGUAUUCAGCAACACCUGUUUUACUAUUUGUUAUUAAACUAUCAUCUCCACCUUCCUUUUGAUUAGCAAUUUGUACUAAGAAACGAAACAAUGUUAUUUGGUGCAACAGAGGAUUGAGCAUCA
# B12: chr12:98549999:98550103:+|3pUTR|ENSG00000120802|unk|FALSE|unique (ssRNA)
# RNA: GGGAGUUCUACAGUCCGACGAUCUGUUUCCCAUACUGUUUUCAGCCUUUUGUUUAUAAUUAGAAAUUGUGAGAAGCUUCAUUUAGUGUUUAAAAAUGUGGGGAGAUAAAUCAGACUUAACAUGUAUGUAAGAUCAAUUCACUUCAACAGAGGAUUGAGCAUCA
# B13: chr10:87753454:87753555:-|3pUTR|ENSG00000138138|msi1|total|mutant (ssRNA)
# RNA: GGGAGUUCUACAGUCCGACGAUCCGUUUAAUGUGAAUUAUAUGUGAAUUUUUUUCAAAAUUUUACUAACCAGAAUUCUGUUACCGGCACCUAACCACGCAGCAUGAGGAAAACGGCACAACACAAUCUUGAGGUGCCUUCUGACAACAGAGGAUUGAGCAUCA
# B14: chr2:65312585:65312700:-|3pUTR|ENSG00000198369|unk|FALSE|unique (ssRNA)
# RNA: GGGAGUUCUACAGUCCGACGAUCUGGACCAGGGCUAGAAUGGGGAUUUCAGGUUUCUAUGAGCCUCCCCAUUACCCCUAAAGUAGAACAUUUUUUAAAUUGUGUUGCCACCACUUCUAAAAAUUUAGCAAUAUUAGAAUAGGACAACAGAGGAUUGAGCAUCA
# Molecular target: T1, UNK ZnF1-6 (called full-length)
# Assay: nsRBNS (natural sequence RNA bind-n-seq); RBNS binding buffer (assumed for nsRBNS): 25 mM Tris pH 7.5, 150 mM KCl, 3 mM MgCl2, 0.01% Triton X-100, 500 ug/ml BSA, 20 U/ml SUPERase-In, 4 C; UNK is unkempt and MSI1 is Musashi-1; names of the RNAs are library labels; protein concentration not given here; high values mean tight binding
row,Binder,binding signal
1,B1,0.967 enrichment R
2,B2,3.49 enrichment R
3,B3,1.01 enrichment R
4,B4,5.47 enrichment R
5,B5,0.334 enrichment R
6,B6,0.497 enrichment R
7,B7,2.53 enrichment R
8,B8,1.45 enrichment R
9,B9,24.9 enrichment R
10,B10,0.607 enrichment R
11,B11,1.19 enrichment R
12,B12,6.12 enrichment R
13,B13,0.627 enrichment R
14,B14,13.9 enrichment R
